Earlier results as cited in publication PMC11006913.
Some of the results follow.

Target: NKX2-5 R161P (Homo sapiens) (UniProt P52952)
Conditions: PBM; conditions not shown; double strand, one strand shown; scale: upbm affinity estimate (log intensity, higher = more binding, comparable within an allelic series)
For CAGGGCGG [8-mer CAGGGCGG], the binding signal is given as 10.1.
In the case of GCCACTTA [8-mer GCCACTTA], the binding signal is given as 13.2.
For CCGGGTCC [8-mer CCGGGTCC], the binding signal is given as 10.2.
For CGCAGGGA [8-mer CGCAGGGA], the binding signal is listed as 10.
For ATCAATTG [8-mer ATCAATTG], the binding signal is given as 11.9.
In the case of CCGGGCCG [8-mer CCGGGCCG], the binding signal is given as 10.
In the case of CTGGCGGC [8-mer CTGGCGGC], the binding signal is given as 10.3.
For CAGGCGCG [8-mer CAGGCGCG], the binding signal is given as 10.1.
For ACGCCCCA [8-mer ACGCCCCA], the binding signal is listed as 10.6.
For GGGGCACC [8-mer GGGGCACC], the binding signal is listed as 10.3.
In the case of CAGCGCCG [8-mer CAGCGCCG], the binding signal is listed as 9.89.

Target: NKX2-5 R190C (Homo sapiens) (UniProt P52952)
Conditions: PBM; conditions not shown; double strand, one strand shown; scale: upbm affinity estimate (log intensity, higher = more binding, comparable within an allelic series)
In the case of GACCCTCA [8-mer GACCCTCA], the binding signal is given as 10.3.
For GCACTTCC [8-mer GCACTTCC], the binding signal is listed as 10.3.
In the case of GCACTCAC [8-mer GCACTCAC], the binding signal is given as 10.4.
For CAGGGCGG [8-mer CAGGGCGG], the binding signal is given as 10.
In the case of AAGAGCAT [8-mer AAGAGCAT], the binding signal is listed as 10.8.
In the case of ATAAGGGG [8-mer ATAAGGGG], the binding signal is given as 10.5.
In the case of AGAGTGCG [8-mer AGAGTGCG], the binding signal is listed as 10.3.
In the case of CAAGGGCC [8-mer CAAGGGCC], the binding signal is given as 10.1.
In the case of ATCTCAAG [8-mer ATCTCAAG], the binding signal is given as 10.7.
In the case of CTCGAGAG [8-mer CTCGAGAG], the binding signal is given as 10.4.
In the case of GCCACTTA [8-mer GCCACTTA], the binding signal is listed as 10.8.
In the case of AAGAGCCC [8-mer AAGAGCCC], the binding signal is given as 10.2.
In the case of CCGGGTCC [8-mer CCGGGTCC], the binding signal is given as 9.83.
In the case of GCTCTTCA [8-mer GCTCTTCA], the binding signal is given as 10.4.
In the case of GAGTGCCC [8-mer GAGTGCCC], the binding signal is given as 10.1.
For AGTGTCTG [8-mer AGTGTCTG], the binding signal is listed as 10.7.
For TCTTAACA [8-mer TCTTAACA], the binding signal is given as 10.9.
In the case of GCTCTCAA [8-mer GCTCTCAA], the binding signal is listed as 10.3.
For CTCCACTC [8-mer CTCCACTC], the binding signal is listed as 10.3.
For ACCCTCTA [8-mer ACCCTCTA], the binding signal is listed as 10.6.
In the case of CGCAGGGA [8-mer CGCAGGGA], the binding signal is given as 10.
For AGTGTTAA [8-mer AGTGTTAA], the binding signal is listed as 10.9.
In the case of ATCAATTG [8-mer ATCAATTG], the binding signal is given as 11.
In the case of CCGGGCCG [8-mer CCGGGCCG], the binding signal is given as 9.82.
In the case of CTGGCGGC [8-mer CTGGCGGC], the binding signal is given as 10.1.
In the case of CAGGCGCG [8-mer CAGGCGCG], the binding signal is listed as 9.98.
For GACCATTA [8-mer GACCATTA], the binding signal is given as 10.9.
For TACTCCAA [8-mer TACTCCAA], the binding signal is listed as 10.7.
In the case of ACGCCCCA [8-mer ACGCCCCA], the binding signal is given as 10.2.
In the case of AGGAGTGC [8-mer AGGAGTGC], the binding signal is given as 10.4.
In the case of CCGAGTGC [8-mer CCGAGTGC], the binding signal is listed as 10.3.
In the case of GGGGCACC [8-mer GGGGCACC], the binding signal is listed as 9.99.
For AAGGGTCT [8-mer AAGGGTCT], the binding signal is given as 10.3.
In the case of CAGCGCCG [8-mer CAGCGCCG], the binding signal is given as 10.
In the case of AAGTGTAA [8-mer AAGTGTAA], the binding signal is listed as 10.7.
For ATTAAGGG [8-mer ATTAAGGG], the binding signal is listed as 10.5.
For CAAGTAGG [8-mer CAAGTAGG], the binding signal is given as 10.4.
For ACACTTTC [8-mer ACACTTTC], the binding signal is given as 10.7.
In the case of GAAAGTGC [8-mer GAAAGTGC], the binding signal is listed as 10.3.

Target: PITX2 L100Q (Homo sapiens) (UniProt Q99697)
Conditions: PBM; conditions not shown; double strand, one strand shown; scale: upbm affinity estimate (log intensity, higher = more binding, comparable within an allelic series)
In the case of CAGGGCGG [8-mer CAGGGCGG], the binding signal is listed as 8.08.
In the case of CGCAGGGA [8-mer CGCAGGGA], the binding signal is given as 8.35.
In the case of CCGGGCCG [8-mer CCGGGCCG], the binding signal is given as 7.96.
For CAGGCGCG [8-mer CAGGCGCG], the binding signal is listed as 8.26.
For ACGCCCCA [8-mer ACGCCCCA], the binding signal is given as 8.52.
In the case of GGGGCACC [8-mer GGGGCACC], the binding signal is listed as 7.87.
In the case of CAGCGCCG [8-mer CAGCGCCG], the binding signal is listed as 8.22.

Target: PITX2 R108H (Homo sapiens) (UniProt Q99697)
Conditions: PBM; conditions not shown; double strand, one strand shown; scale: upbm affinity estimate (log intensity, higher = more binding, comparable within an allelic series)
In the case of CAGGGCGG [8-mer CAGGGCGG], the binding signal is given as 8.04.
For CGCAGGGA [8-mer CGCAGGGA], the binding signal is listed as 8.18.
For CCGGGCCG [8-mer CCGGGCCG], the binding signal is listed as 7.65.
In the case of CAGGCGCG [8-mer CAGGCGCG], the binding signal is given as 8.09.
In the case of ACGCCCCA [8-mer ACGCCCCA], the binding signal is given as 8.03.
In the case of GGGGCACC [8-mer GGGGCACC], the binding signal is listed as 7.93.
In the case of CAGCGCCG [8-mer CAGCGCCG], the binding signal is given as 7.93.

Target: PITX2 R130W (Homo sapiens) (UniProt Q99697)
Conditions: PBM; conditions not shown; double strand, one strand shown; scale: upbm affinity estimate (log intensity, higher = more binding, comparable within an allelic series)
In the case of CAGGGCGG [8-mer CAGGGCGG], the binding signal is listed as 7.86.
In the case of CGCAGGGA [8-mer CGCAGGGA], the binding signal is given as 7.99.
In the case of CCGGGCCG [8-mer CCGGGCCG], the binding signal is given as 7.54.
In the case of CAGGCGCG [8-mer CAGGCGCG], the binding signal is listed as 8.02.
In the case of ACGCCCCA [8-mer ACGCCCCA], the binding signal is given as 8.06.
For GGGGCACC [8-mer GGGGCACC], the binding signal is given as 7.79.
In the case of CAGCGCCG [8-mer CAGCGCCG], the binding signal is listed as 7.83.

Target: PITX2 T114P (Homo sapiens) (UniProt Q99697)
Conditions: PBM; conditions not shown; double strand, one strand shown; scale: upbm affinity estimate (log intensity, higher = more binding, comparable within an allelic series)
For CAGGGCGG [8-mer CAGGGCGG], the binding signal is listed as 8.08.
For CGCAGGGA [8-mer CGCAGGGA], the binding signal is given as 8.1.
For CCGGGCCG [8-mer CCGGGCCG], the binding signal is listed as 7.74.
For CAGGCGCG [8-mer CAGGCGCG], the binding signal is listed as 8.07.
For ACGCCCCA [8-mer ACGCCCCA], the binding signal is given as 8.16.
In the case of GGGGCACC [8-mer GGGGCACC], the binding signal is given as 7.96.
For CAGCGCCG [8-mer CAGCGCCG], the binding signal is given as 7.95.

Target: PROP1 R112Q (Homo sapiens) (UniProt O75360)
Conditions: PBM; conditions not shown; double strand, one strand shown; scale: upbm affinity estimate (log intensity, higher = more binding, comparable within an allelic series)
In the case of GCCACTTA [8-mer GCCACTTA], the binding signal is listed as 12.1.
In the case of CCGGGTCC [8-mer CCGGGTCC], the binding signal is given as 10.8.
In the case of ATCAATTG [8-mer ATCAATTG], the binding signal is listed as 12.5.
For CTGGCGGC [8-mer CTGGCGGC], the binding signal is given as 11.

Target: PROP1 R99Q (Homo sapiens) (UniProt O75360)
Conditions: PBM; conditions not shown; double strand, one strand shown; scale: upbm affinity estimate (log intensity, higher = more binding, comparable within an allelic series)
In the case of GCCACTTA [8-mer GCCACTTA], the binding signal is given as 11.9.
In the case of CCGGGTCC [8-mer CCGGGTCC], the binding signal is given as 10.9.
In the case of CTGGCGGC [8-mer CTGGCGGC], the binding signal is listed as 11.
